Molecules are shown by their SMILES. Among all 52,000 compounds or so, about 1,700 (3.3%) were called active. Rule as the data show it: active = survival mostly below about 52% (no sharp cut-off); inactive = mostly above about 56%. The list shows a part of the results.

The test deals with Wild type. Nature of the test: S. aureus survival, RN4220 and DeltatarO strains – OD600, teichoic acid synthesis inhibitors, primary screen (AID 463173). The note with it: S. aureus RN4220 wild type/DeltatarO growth, OD600, 18 h, active compounds read low, screened at 18.75 µg/mL (by protocol).
In the case of `O=S(=O)(Nc1cccc(-c2ccc(N3CCCCC3)nn2)c1)c1cccc(F)c1`, the survival was inactive: 119%.

In the case of `CC1CCN(S(=O)(=O)c2ccc3c(c2)N(CC(=O)NC(C)c2ccccc2)C(=O)CO3)CC1` (stereo not given), the survival was inactive: 132%.

Turning to `CSc1cccc(NC(=O)CN(c2ccccc2)S(=O)(=O)N(C)C)c1`, the survival was inactive: 136%.

`Cc1ccc(C(=O)NS(=O)(=O)c2ccccc2)cc1`: the survival was inactive: 108%.

In the case of `COc1ccc(C2C(=O)N(C3CCC(C)CC3)CC(=O)N2CCc2ccccc2)cc1OC` (stereo not given), the survival was inactive: 57%.

For `Cc1cc(N2CCCCC2)nc2ccc(NC(=O)c3cccc(F)c3)cc12`, the survival is inactive: 46%.

For the compound `Cc1ccc(C(=O)N2CCc3cc(CNC(=O)COc4ccccc4)ccc32)cc1`, the survival was inactive: 82%.

On to `CCCc1nnc(NC(=O)Cc2coc3cc(C)cc(C)c23)s1`, for which the survival was inactive: 91%.

Take `O=S(=O)(c1cccc(C(F)(F)F)c1)n1c(/C=C/c2ccccc2)nc2ccccc21`: the survival is inactive: 78%.

In the case of `O=C(Cn1c(=O)n(-c2ccccc2)c(=O)c2sc3ccccc3c21)N1CCCC1`, the survival is inactive: 84%.

For the compound `CCCN1CCN(CCCNC(=O)c2cnn(-c3ccc(F)cc3)c2-n2cccc2)CC1`, the survival is inactive: 88%.

On to `CCOc1ccc(Nc2nc3ccccc3n3c(CC)nnc23)cc1`, for which the survival is inactive: 63%.

Consider `O=C(Nc1ccc(Br)cc1)C1CCN(S(=O)(=O)c2cccc3nsnc23)CC1`, for which the survival is inactive: 93%.

Turning to `CC(C)OCCCNC(=O)CCCn1c(SCC(=O)c2ccc(F)cc2)nc2c(sc3ccccc32)c1=O`, the survival was inactive: 89%.

Take `O=[N+]([O-])c1cc(-c2nc(-c3cccnc3)no2)ccc1NCc1ccccc1`: the survival is inactive: 95%.

With `CC(C)c1ccc(NC(=O)CN2C(=O)COc3ccc(S(=O)(=O)Nc4ccccc4)cc32)cc1`, the survival is inactive: 72%.

Take `COc1ccc(CCNC(=O)c2nnc(Cc3ccc(Cl)cc3)o2)cc1OC`: the survival was inactive: 80%.

As for `O=C(NCC(c1ccco1)S(=O)(=O)c1ccc(Cl)cc1)c1ccccc1F` (stereo not given), the survival is inactive: 74%.

As for `COc1ccc(-c2nn3c(=O)cc(CN4CCN(C(=O)Nc5ccc(C)c(Cl)c5)CC4)nc3s2)cc1`, the survival is inactive: 80%.

As to `Cc1ccc2oc(=O)c3cnn(CC(=O)Nc4cccc(C(F)(F)F)c4)c3c2c1`, the survival is inactive: 89%.

With `NC(=O)/C(=C\c1ccco1)NC(=O)c1ccco1`, the survival is inactive: 106%.

In the case of `COCC(=O)N1c2nc(C(C)C)nn2C2(CCCCC2)[C@@H]2CCCC[C@@H]21`, the survival is inactive: 94%.

Take `CCOC(=O)c1sc(NC(=O)c2cc(CC)on2)c(C(=O)OCC)c1C`: the survival is inactive: 78%.

Consider `Cc1ccc(NS(=O)(=O)c2ccc3[nH]c4c(c3c2)CCCCCC4)cc1Cl`, for which the survival was inactive: 71%.

For `CCCOC(=O)c1ccc(NC(=O)Cc2csc(C)n2)cc1`, the survival is inactive: 121%.

In the case of `COC(=O)c1ccc(S(=O)(=O)N(C)C)o1`, the survival is inactive: 115%.

As for `Cc1c(C(=O)NCc2ccccc2)sc2nc3n(c(=O)c12)CCC3`, the survival is inactive: 107%.

As to `CCC(=O)N1CCc2cc(Br)cc(S(=O)(=O)NCc3ccc(Cl)cc3)c21`, the survival was inactive: 71%.

Take `Cc1cccc(N2C(=O)CSC23C(=O)N(Cc2cccc(C(F)(F)F)c2)c2ccccc23)c1` (stereo not given): the survival is inactive: 153%.

Regarding `CSc1nc2sc3c(c2c(=O)n1-c1ccccc1C)CCCC3`, the survival was inactive: 99%.

In the case of `Cc1nc(N2CCCC2)c2c(C(=O)N3CCN(c4cccc(Cl)c4)CC3)c(C)oc2n1`, the survival was inactive: 66%.

For `COc1ccc(N2CCN(C(=O)c3ccc(CS(=O)(=O)c4ccc(Br)cc4)o3)CC2)cc1`, the survival was inactive: 132%.

`C=Cc1ccc(CSc2nc(-c3ccccc3Cl)nc3c2Cc2c(CO)cnc(C)c2O3)cc1`: the survival is inactive: 81%.

With `Cc1ccc(N2CC(C)Cn3c2nc2c3c(=O)n(CC(=O)O)c(=O)n2C)cc1` (stereo not given), the survival is inactive: 72%.

`CN(C)CCNC(=O)CCCN1C(=O)c2cccnc2Oc2ccc(Cl)cc21`: the survival was inactive: 83%.

Consider `O=C(NC1CCCC1)c1cnn2c(C(F)F)cc(-c3ccccc3)nc12`, for which the survival is inactive: 122%.

Take `CCN(c1ccccc1)c1nnc(NC(=O)Nc2cccc(Br)c2)s1`: the survival was inactive: 86%.

On to `O=C1CC(c2nc3ccccc3n2CCCOc2ccccc2)CN1c1ccc(F)cc1` (stereo not given), for which the survival is inactive: 107%.

As to `Cc1cc(C)cc(-n2ccn(CC(=O)Nc3ccccc3C(F)(F)F)c(=O)c2=O)c1`, the survival was inactive: 82%.

As to `CCN(c1ccc(OC)cc1)S(=O)(=O)c1nnc(NC(=O)c2ccccc2Cl)s1`, the survival is inactive: 58%.

With `CN(C)C(=O)CSc1ccc(-c2ccc(F)cc2)nn1`, the survival was inactive: 99%.

With `COCCCNC(=O)CSc1c2c(nc3ccc(Cl)cc13)CCCC2`, the survival was inactive: 73%.

As for `CCOc1ccc(C2c3c(oc4ccc(C)cc4c3=O)C(=O)N2Cc2ccc3c(c2)OCO3)cc1OC` (stereo not given), the survival was inactive: 142%.

For the compound `Cc1ccc(CNC(=O)c2ccc(CSCc3ccc(C)cc3)o2)cc1`, the survival is inactive: 87%.

Turning to `COc1ccc(NC(=O)c2sc3nc(C)c(C(=O)Nc4ccc(C)cc4C)c(-c4ccc(C)o4)c3c2N)cc1`, the survival is inactive: 77%.

For the compound `CCc1ccc(NC(=O)CN2C(=O)C3(SCC(=O)N3c3ccccc3)c3ccccc32)cc1` (stereo not given), the survival is inactive: 152%.

`O=C(CNC1CCCC1)Nc1ccc(N2CCCC2)cc1`: the survival is inactive: 103%.

For `Cc1ccc(Cl)cc1NC(=O)CSC1=Nc2ccccc2C2=NC(Cc3ccccc3)C(=O)N12` (stereo not given), the survival is inactive: 83%.

For the compound `CC1(C)CC(=O)c2cc(-c3nc(-c4ccc(Cl)cc4)cs3)c(=O)n(-c3ccc(Cl)cc3)c2C1`, the survival is inactive: 67%.

Take `CCn1c(=N)c(S(=O)(=O)c2ccc(C)cc2)cc2c(=O)n3ccccc3nc21`: the survival was inactive: 102%.

For `COc1ccc(NC(=O)Cn2nc(-c3ccncc3)ccc2=O)cc1Cl`, the survival was inactive: 69%.

For the compound `Cc1ccc(NC(=O)/C(C#N)=C/c2ccc(C)o2)cc1`, the survival was inactive: 83%.

In the case of `CC(C)CCNC(=O)c1ccc2c(c1)NC(=O)C(CS(=O)(=O)Cc1cccc(Br)c1)N2` (stereo not given), the survival is inactive: 135%.

For the compound `COc1ccc(CCNc2ncnc3c2cnn3-c2cccc(Cl)c2)cc1`, the survival is inactive: 75%.

`Cc1cc(C)n(CCc2nc3c4ccccc4nc(N4CCN(c5ccccc5F)CC4)n3n2)n1`: the survival was inactive: 78%.

Consider `COc1ccc(NC(=O)CSc2nc3ccccc3n2CC(=O)N(C)c2ccc(F)cc2)cc1`, for which the survival is inactive: 76%.

Take `COc1ccc(OCCCCn2c(C3CC(=O)N(c4cccc(Cl)c4)C3)nc3ccccc32)cc1` (stereo not given): the survival is inactive: 96%.

Regarding `COc1ccc(-c2cc(C(F)F)nc(-n3nc(C)cc3C)n2)cc1`, the survival was inactive: 101%.

In the case of `Cc1ccc(Cn2ccnc2SCC(=O)NCc2ccc(F)cc2)cc1`, the survival was inactive: 70%.

As for `CCS(=O)(=O)N1CCc2cc(C(=O)NCCc3ccccc3)ccc21`, the survival is inactive: 104%.

In the case of `CCCN1CCN(CCNC(=O)Nc2ccc(OC)c(OC)c2)CC1`, the survival is inactive: 84%.

For the compound `CN1C(=O)C2(SCC(=O)N2c2cccc(C(F)(F)F)c2)c2ccccc21` (stereo not given), the survival was inactive: 132%.

As to `CCOC(=O)C1CCC(CN(Cc2ccc(Cl)cc2)S(=O)(=O)c2ccc(Br)cc2)CC1` (stereo not given), the survival was inactive: 71%.

For the compound `CCOC(=O)C1CCN(CC(=O)N2CCCc3c2c(=O)oc2ccc(OCc4ccccc4)cc32)CC1`, the survival is inactive: 110%.

For the compound `COc1ccc(-c2onc(C)c2C)cc1S(=O)(=O)N(C)Cc1ccco1`, the survival was inactive: 100%.

On to `CCOc1ccc(NC(=O)c2cn(C)c(=O)c3cc(OC)c(OC)cc23)cc1`, for which the survival was inactive: 66%.

`C=CCc1cccc2cc(C(N)=O)c(=N)oc12`: the survival is inactive: 102%.

For `COc1ccc(CCN=C(N)Nc2nc(C)cc(C)n2)cc1`, the survival was inactive: 99%.

Consider `CCS(=O)(=O)N1CC(=O)N(c2cccc(Cl)c2C)C(C)(C(=O)NC2CCCCC2)C1` (stereo not given), for which the survival was inactive: 71%.

As for `CC(C)CSc1nnc2c3ccccc3n(C)c2n1`, the survival is inactive: 103%.

Consider `CCN(CCCNC(=O)c1cc2cc3ccc(C)cc3nc2s1)c1ccccc1`, for which the survival is inactive: 127%.

Take `CCCN(c1ccccc1CC)S(=O)(=O)c1ccc2c(c1)CC(C)N2C(=O)C1CC1` (stereo not given): the survival was inactive: 90%.

On to `Cc1ccc(N=Cc2ccc(C)o2)cc1`, for which the survival is inactive: 112%.

For `COCCNC(=O)CCCN1C(=O)c2ccccc2Sc2ncccc21`, the survival was inactive: 87%.

As to `O=S(=O)(c1cccc(F)c1)N1CCC(c2nc3ccccc3s2)CC1`, the survival was inactive: 88%.

Turning to `Cc1ccc(NC(=O)c2oc3ccc(S(=O)(=O)N(C)C4CCCCC4)cc3c2C)cc1Cl`, the survival is inactive: 66%.

As to `Cc1ccc(-n2c(C)cc(CO)c2C)cc1`, the survival was inactive: 100%.

Consider `COc1ccc(-c2nc(CSCC(=O)N3CCN(c4ccc(OC)cc4)CC3)c(C)o2)cc1`, for which the survival is inactive: 81%.

With `CC1CCCCN1C(=O)c1ccccc1F` (stereo not given), the survival is inactive: 95%.

`CC(=O)N1CCc2cc(S(=O)(=O)NC(CC(C)C)C(=O)NCc3ccccc3)ccc21` (stereo not given): the survival is inactive: 73%.

Consider `O=c1c(=O)n(-c2cccc(Cl)c2)ccn1Cc1cccc(F)c1`, for which the survival was inactive: 86%.

As for `COc1cccc2c1cc1c(=O)n(CC(=O)NC3CC3)nc(C)n12`, the survival is inactive: 80%.

Turning to `CCCCN(CCCC)CC(O)Cn1cc(/C=C/C(=O)c2ccccc2)c2ccccc21` (stereo not given), the survival was active: 18%.

As to `COc1cccc(-c2nc(CSCC(=O)NCCc3ccc(Cl)cc3)c(C)o2)c1`, the survival is active: -1%.

Turning to `Cc1nnc(SCC(=O)Nc2ccc(Br)cc2)[nH]c1=O`, the survival is inactive: 114%.

On to `O=c1c2c(nc3n1CCCS3)-c1ccccc1CC21CCCC1`, for which the survival is inactive: 107%.

For the compound `COc1ccc(C)cc1Nc1nc(-c2cccc(Cl)c2)c2c(n1)-c1ccccc1OC2`, the survival was inactive: 81%.

For the compound `COc1cc(-c2nc(Cn3nnc(C(=O)Nc4cc(C)cc(C)c4)c3C)c(C)o2)cc(OC)c1OC`, the survival is inactive: 70%.

Turning to `Cc1ccc(-c2nc(N3CCN(c4ccccc4Cl)CC3)c3ccccc3n2)cc1`, the survival is inactive: 62%.

Turning to `CCCCC(CC)CNC(=O)CCCn1c(=O)[nH]c2ccsc2c1=O` (stereo not given), the survival is inactive: 118%.

These data come from PubChem BioAssay AID463173 (ICCB-Longwood Screening Facility, Harvard Medical School, 2010).
